From article PMC10691697, “A small molecule exerts selective antiviral activity by targeting the human cytomegalovirus nuclear egress complex” (PLOS Pathogens, 2023)

Biological target: T1, UL50_C79S+UL53 (Human cytomegalovirus, UniProt P16794)
T1 construct: GST (N, cleaved yes); 13-residue glycine-serine linker […]; made in house; host or cells: E. coli BL21 (DE3) RIPL
Test: biochemical
Assay type: binding
Conditions: replicates, read-out: normalized FRET signal relative to control without inhibitor

## C=CC(=O)Nc1cccc(Oc2cc(Cl)nc3[nH]ccc23)c1 [GK1]
3.13 μM compound
  remaining activity at 3.13 µM: 100%
6.25 μM compound
  remaining activity at 6.25 µM: 97%
50.00 μM compound
  remaining activity at 50 µM: 50%
